This is one part of the list. Sequences were assembled here from the parent chain. Inactive controls read about 0.05.
B1: TEV protease; numbered along this chain (parent)
chain: MGESLFKGPRDYNPISSSICHLTNESDGHTTSLYGIGFGPFIITNKHLFRRNNGTLVVQSLHGVFKVKDTTTLQQHLVDGRDMIIIRMPKDFPPFPQKLKFREPQREERICLVTTNFQTKSMSSMVSDTSCTFPSGDGIFWKHWIQTKDGQCGSPLVSTRDGFIVGIHSASNFTNTNNYFTSVPKNFMELLTNQEAQQWVSGWRLNADSVLWGGHKVFMVKPEEPFQPVKEATQL

Variants of: B1
Test: raw area under fraction-flipped curve 0-4 h after induction (AUC4h, not background-subtracted), DNA-recorder readout of cleavage of the substrate (dimensionless); higher = more cleavage of the substrate by the protease variant
Settings: temperature: 34 °C; time window: 0-4 h after rhamnose induction
Experimental: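 In vivo DNA recorder in E. coli TOP10(DE3) ΔrhaA at 34 °C. Each TEVp single-site mutant (parent TEVp 0) is paired with a single-site variant of the 7-mer TEVs (canonical ENLYFQ|S). The substrate sits between flexible linkers in a Bxb1-sfGFP-TEVs-SsrA fusion, so cleavage stabilises Bxb1 and speeds flipping of a recombination array, read by NGS. The value is the raw area under the fraction-flipped curve over 0-4 h after rhamnose induction (AUC4h), with ≥20 reads per time point. It is not background-subtracted; inactive controls average about 0.047.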
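Further: Bxb1 expression induced with 0.2% (w/v) L-rhamnose at OD600 near 0.5, cultures sampled hourly, flipped fraction per protease–substrate barcode pair counted by paired-end Illumina sequencing.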

Variant	area with substrate ENAYFQS	area with substrate ENCYFQS	area with substrate ENDYFQS	area with substrate ENEYFQS	area with substrate ENFYFQS	area with substrate ENGYFQS	area with substrate ENIYFQS	area with substrate ENKYFQS	area with substrate ENNYFQS	area with substrate ENPYFQS	area with substrate ENQYFQS	area with substrate ENRYFQS	area with substrate ENSYFQS	area with substrate ENTYFQS	area with substrate ENVYFQS	area with substrate ENHYFQS	area with substrate ENMYFQS	area with substrate ENWYFQS	area with substrate ENYYFQS
MGESLFKGPRDYNPISSSICHLTNESDGHTTSLYGIGFGPFIITNKHLFRRNNGTLVVQSLHGVFKVKDTTTLQQHLVDGRDMIIIRMPKDFPPFPQKLKFREPQREERICLVTTNFQTKSMSSMVSDTSCTFPSGDGIFWKHWIQTKDGQCGSPLVSTRDGFIVGIHSASNFTNTNNYFTSVPKNFMNLLTNQEAQQWVSGWRLNADSVLWGGHKVFMVKPEEPFQPVKEATQL [E189N]	0.0585	0.0651	0.0593	0.0607	0.0549	0.0726	0.0884	0.0736	0.0625	0.0669	0.0637	0.0585	0.064	0.0904	0.0939	–	–	–	–
MGESLFKGPRDYNPISSSICHLTNESDGHTTSLYGIGFGPFIITNKHLFRRNNGTLVVQSLHGVFKVKDTTTLQQHLVDGRDMIIIRMPKDFPPFPQKLKFREPQREERICLVTTNFQTKSMSSMVSDTSCTFPSGDGIFWKHWIQTKDGQCGSPLVSTRDGFIVGIHSASNFTNTNNYFTSVPKNFMTLLTNQEAQQWVSGWRLNADSVLWGGHKVFMVKPEEPFQPVKEATQL [E189T]	0.0553	0.0709	–	0.051	0.041	0.0696	0.124	–	0.0671	–	0.0586	0.0533	–	0.0577	0.0932	0.0423	–	–	–
MGESLFKGPRDYNPISSSICHLTNESDGHTTSLYGIGFGPFIITNKHLFRRNNGTLVVQSLHGVFKVKDTTTLQQHLVDGRDMIIIRMPKDFPPFPQKLKFREPQREERICLVTTNFQTKSMSSMVSDTSCTFPSGDGIFWKHWIQTKDGQCGSPLVSTRDGFIVGIHSASNFTNTNNYFTSVPKNFMELPTNQEAQQWVSGWRLNADSVLWGGHKVFMVKPEEPFQPVKEATQL [L191P]	0.0498	0.0561	0.0551	–	0.0775	–	0.0551	0.0576	–	0.0574	0.0702	–	0.0551	–	0.0468	–	–	–	–
MGESLFKGPRDYNPISSSICHLTNESDGHTTSLYGIGFGPFIITNKHLFRRNNGTLVVQSLHGVFKVKDTTTLQQHLVDGRDMIIIRMPKDFPPFPQKLKFREPQREERICLVTTNFQTKSMSSMVSDTSCTFPSGDGIFWKHWIQTKDGQCGSPLVSTRDGFIVGIHSASNFTNTNNYFTSVPKNFMELLTNHEAQQWVSGWRLNADSVLWGGHKVFMVKPEEPFQPVKEATQL [Q194H]	0.0493	0.0631	–	0.0598	0.0448	0.0575	0.158	0.0891	0.0533	–	0.0536	0.0498	–	–	0.0738	0.0508	0.102	0.0488	0.0813
MGESLFKGPRDYNPISSSICHLTNESDGHTTSLYGIGFGPFIITNKHLFRRNNGTLVVQSLHGVFKVKDTTTLQQHLVDGRDMIIIRMPKDFPPFPQKLKFREPQREERICLVTTNFQTKSMSSMVSDTSCTFPSGDGIFWKHWIQTKDGQCGSPLVSTRDGFIVGIHSASNFTNTNNYFTSVPKNFMELLTNNEAQQWVSGWRLNADSVLWGGHKVFMVKPEEPFQPVKEATQL [Q194N]	0.0402	–	–	0.0748	0.0637	0.0652	–	0.0553	–	–	0.0551	–	0.0536	0.064	0.0612	0.0368	–	–	–
MGESLFKGPRDYNPISSSICHLTNESDGHTTSLYGIGFGPFIITNKHLFRRNNGTLVVQSLHGVFKVKDTTTLQQHLVDGRDMIIIRMPKDFPPFPQKLKFREPQREERICLVTTNFQTKSMSSMVSDTSCTFPSGDGIFWKHWIQTKDGQCGSPLVSTRDGFIVGIHSASNFTNTNNYFTSVPKNFMELLTNQAAQQWVSGWRLNADSVLWGGHKVFMVKPEEPFQPVKEATQL [E195A]	0.0554	–	0.0714	–	0.0617	–	0.145	0.0571	–	–	0.0494	0.0666	0.0553	0.0681	–	0.0772	0.0617	–	0.0414
MGESLFKGPRDYNPISSSICHLTNESDGHTTSLYGIGFGPFIITNKHLFRRNNGTLVVQSLHGVFKVKDTTTLQQHLVDGRDMIIIRMPKDFPPFPQKLKFREPQREERICLVTTNFQTKSMSSMVSDTSCTFPSGDGIFWKHWIQTKDGQCGSPLVSTRDGFIVGIHSASNFTNTNNYFTSVPKNFMELLTNQNAQQWVSGWRLNADSVLWGGHKVFMVKPEEPFQPVKEATQL [E195N]	0.041	0.0621	0.0658	–	0.06	0.063	0.118	–	0.067	0.0748	0.0617	–	–	0.0636	0.0587	0.0574	–	0.0622	–
MGESLFKGPRDYNPISSSICHLTNESDGHTTSLYGIGFGPFIITNKHLFRRNNGTLVVQSLHGVFKVKDTTTLQQHLVDGRDMIIIRMPKDFPPFPQKLKFREPQREERICLVTTNFQTKSMSSMVSDTSCTFPSGDGIFWKHWIQTKDGQCGSPLVSTRDGFIVGIHSASNFTNTNNYFTSVPKNFMELLTNQRAQQWVSGWRLNADSVLWGGHKVFMVKPEEPFQPVKEATQL [E195R]	0.061	0.0641	0.0702	–	–	0.052	0.106	0.0505	0.0567	0.0567	0.084	0.0652	0.0658	0.0688	0.0696	0.0412	0.0725	–	–
MGESLFKGPRDYNPISSSICHLTNESDGHTTSLYGIGFGPFIITNKHLFRRNNGTLVVQSLHGVFKVKDTTTLQQHLVDGRDMIIIRMPKDFPPFPQKLKFREPQREERICLVTTNFQTKSMSSMVSDTSCTFPSGDGIFWKHWIQTKDGQCGSPLVSTRDGFIVGIHSASNFTNTNNYFTSVPKNFMELLTNQEDQQWVSGWRLNADSVLWGGHKVFMVKPEEPFQPVKEATQL [A196D]	0.0616	0.091	0.0672	0.0721	0.0618	–	–	–	0.0628	0.0743	0.0549	0.0423	0.0448	0.059	–	0.0614	0.0942	–	0.0625
